SMILES strings stand for the structures. The campaign covered roughly 39,000 compounds. About 220 (0.56%) showed activity. This is one part of the list.
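Further: static incubation at 37 °C against the wild-type strain, values averaged over two biological replicates.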

This test concerns Escherichia coli K-12 BW25113. The test can be described thus: relative growth (OD600 normalised to plate interquartile mean) (fraction); higher = less growth inhibition, active = 0.2 or less. Conditions: 50 µM; LB; incubation time: overnight (16-24 h).
`C[C@@H]1CCCCO[C@@H](CN(C)C(=O)Nc2ccc3c(c2)OCO3)[C@H](C)CN([C@H](C)CO)C(=O)c2cc(NC(=O)Nc3ccccc3)ccc2O1`: the relative growth is inactive: 0.993.

As for `Cc1ccc(-c2cnc3c(c2)C(=O)N([C@H](C)CO)C[C@H](C)[C@H](CN(C)C(=O)Cc2ccncc2)O3)cc1`, the relative growth is inactive: 1.01. To `COc1ccc(CN(C)C[C@H]2OCCCC[C@H](C)Oc3ccc(NC(=O)Nc4cccc5ccccc45)cc3C(=O)N([C@@H](C)CO)C[C@@H]2C)cc1` belongs inactive: 1.01; to `Cc1ccc(S(=O)(=O)N(C)C[C@H]2OCCCC[C@H](C)Oc3ccc(NC(=O)Nc4ccc5c(c4)OCO5)cc3C(=O)N([C@H](C)CO)C[C@H]2C)cc1`, inactive: 1.01; to `Cc1ccc(S(=O)(=O)N(C)C[C@H]2OCCCC[C@@H](C)Oc3ccc(NC(=O)Cc4ccccc4)cc3C(=O)N([C@@H](C)CO)C[C@H]2C)cc1`, inactive: 1.03. On to `C[C@@H]1CCCCO[C@H](CN(C)S(=O)(=O)c2ccc(F)cc2)[C@H](C)CN([C@@H](C)CO)C(=O)c2cc(NC(=O)C3CCCCC3)ccc2O1`, for which the relative growth is inactive: 1.02. In the case of `Cc1ccc(S(=O)(=O)Nc2ccc3c(c2)CC(=O)N([C@H](C)CO)C[C@@H](C)[C@@H](CN(C)S(=O)(=O)c2ccccc2)O3)cc1`, the relative growth was inactive: 1. `O=C(O)C[C@H]1Oc2ccccc2NC1=O`: the relative growth is inactive: 0.862. To `CNC(=O)CN1CCOC[C@@]2(C1)CN(Cc1ccn(C)n1)CCO2` belongs inactive: 1.01; to `C[C@H](CO)N1C[C@H](C)[C@@H](CN(C)CC2CCCCC2)OCCCC[C@H](C)Oc2ccc(NS(=O)(=O)c3ccc(F)cc3)cc2C1=O`, inactive: 0.974; to `C[C@@H]1CN([C@H](C)CO)C(=O)c2cc(NC(=O)c3ccccc3)ccc2O[C@@H](C)CCCCO[C@@H]1CN(C)Cc1ccc(C(=O)O)cc1`, inactive: 0.983. As to `C[C@H](CO)N1C[C@H](C)[C@H](CN(C)S(C)(=O)=O)OCCCC[C@H](C)Oc2ccc(N(C)C)cc2C1=O`, the relative growth is inactive: 0.998.

`NC(Cc1ccc(O)c(O)c1)C(=O)O` (centres undefined): the relative growth was inactive: 1.03. `CNC[C@H]1OCCCC[C@@H](C)Oc2ccc(NS(=O)(=O)c3c(C)noc3C)cc2C(=O)N([C@@H](C)CO)C[C@H]1C`: the relative growth was inactive: 0.916. To `C[C@@H]1CCCCO[C@H](CN(C)C(=O)NC2CCCCC2)[C@H](C)CN([C@H](C)CO)C(=O)c2cc(NS(=O)(=O)c3ccc(F)cc3)ccc2O1` belongs inactive: 0.995; to `C[C@@H]1CCCCO[C@H](CN(C)CC2CCCCC2)[C@H](C)CN([C@@H](C)CO)C(=O)c2cc(NC(=O)Nc3ccc(F)cc3)ccc2O1`, inactive: 0.95; to `CCCCCCc1nc(CCCc2cc3c(c(CCCCCC)n2)[Si](C(C)C)(C(C)C)OC3)cc2c1[Si](C(C)C)(C(C)C)OC2`, inactive: 0.986.

Consider `COc1ccc(CNC(=O)C[C@H]2CC[C@@H]3[C@H](COc4ccc(NC(=O)C5CC5)cc4C(=O)N3C)O2)cc1`, for which the relative growth was inactive: 0.973. With `C[C@@H]1CN([C@@H](C)CO)C(=O)CCCn2cc(nn2)CO[C@H]1CN(C)C(=O)c1cc(-c2ccccc2)on1` the figure was inactive: 0.996. With `C[C@@H]1CCCCO[C@H](CN(C)C(=O)C2CCCCC2)[C@H](C)CN([C@@H](C)CO)C(=O)c2cc(NS(=O)(=O)c3cccs3)ccc2O1` the figure was inactive: 1.02; with `C[C@@H]1CN([C@H](C)CO)C(=O)c2cc(NC(=O)Nc3cccc4ccccc34)ccc2O[C@@H]1CN(C)Cc1ccc(C(=O)O)cc1`, inactive: 1.01; with `C[C@H]1CCn2cc(nn2)COC[C@@H](Cc2ccccc2)NC(=O)[C@@H](C)CCn2cc(nn2)COC[C@@H](Cc2ccccc2)NC1=O`, inactive: 0.984.

In the case of `COc1ccc(NC(=O)Nc2ccc3c(c2)C(=O)N([C@@H](C)CO)C[C@H](C)[C@H](CN(C)C(=O)Nc2ccc(F)cc2)OCCCC[C@H](C)O3)cc1`, the relative growth was inactive: 1.04. To `COc1ccc2c3c([nH]c2c1)[C@H](CO)N(C[C@]13CCN(CC1)S(=O)(=O)c1ccccc1)C(=O)c1cnccn1` belongs inactive: 0.985; to `CCCCCOc1ccc([C@H]2C(C(=O)c3ccc4c(c3)OCCO4)=C(O)C(=O)N2Cc2ccco2)cc1`, inactive: 1.

Consider `O=C(c1ccc(F)cc1)N1c2ccccc2C=Cc2ccccc21`, for which the relative growth was inactive: 1.02.

Consider `C[C@@H]1CN([C@H](C)CO)C(=O)c2cc(NS(=O)(=O)c3cn(C)cn3)ccc2O[C@@H](C)CCCCO[C@@H]1CN(C)S(=O)(=O)c1cccs1`, for which the relative growth is inactive: 0.964. With `O=C(c1cccnc1)N1C[C@H]2[C@@H](c3ccccc31)[C@@H](CO)N2C(=O)CN1CCOCC1` the figure was inactive: 0.983; with `C[C@H]1CCCCO[C@H](CN(C)C(=O)Nc2ccc(F)cc2)[C@@H](C)CN([C@@H](C)CO)C(=O)c2cc(NC(=O)CCCN(C)C)ccc2O1`, inactive: 0.981.

`C[C@H]1CN([C@@H](C)CO)C(=O)c2cccc(NC(=O)c3cnccn3)c2O[C@H]1CN(C)S(=O)(=O)c1ccc(Cl)cc1`: the relative growth is inactive: 0.985. To `COc1cccc(NC(=O)N[C@H]2C=C[C@H](CC(=O)N3CCN(C)CC3)O[C@H]2CO)c1` belongs inactive: 0.995. To `Cc1cc(C(=O)Nc2ccc3c(c2)C(=O)N(C)[C@@H]2CC[C@@H](CC(=O)NCC(F)(F)F)O[C@H]2CO3)no1` belongs inactive: 1.01; to `C[C@@H]1CN([C@@H](C)CO)C(=O)c2ccccc2-c2ccccc2CO[C@@H]1CN(C)C(=O)c1cc(Cl)cc(Cl)c1`, inactive: 1.01; to `C[C@@H]1CN([C@@H](C)CO)C(=O)c2cc(/C=C/c3ccccc3)cnc2O[C@@H]1CN(C)C(=O)C1CCOCC1`, inactive: 1.02. With `COc1cccc(S(=O)(=O)Nc2ccc3c(c2)C(=O)N(C)C[C@H](OC)[C@H](C)CN(C(=O)Cc2cccnc2)[C@H](C)CO3)c1` the figure was inactive: 1.02; with `C[C@@H]1CCCCO[C@H](CN(C)C(=O)c2ccncc2)[C@H](C)CN([C@@H](C)CO)C(=O)c2cc(NS(=O)(=O)c3ccc(Cl)cc3)ccc2O1`, inactive: 0.994; with `C[C@H]1CN([C@@H](C)CO)C(=O)c2cc(NC(=O)C3CCCCC3)ccc2O[C@@H]1CN(C)Cc1ccc(-c2ccccc2)cc1`, inactive: 0.979. Turning to `C[C@H](CO)N1C[C@H](C)[C@H](CN(C)S(=O)(=O)c2cccs2)Oc2c(NS(=O)(=O)c3cn(C)cn3)cccc2C1=O`, the relative growth was inactive: 0.987. To `C[C@@H]1CN([C@@H](C)CO)C(=O)c2cc(NC(=O)c3ccncc3)ccc2O[C@@H](C)CCCCO[C@@H]1CN(C)Cc1ccc(C(F)(F)F)cc1` belongs inactive: 0.966; to `COc1ccc(S(=O)(=O)N2C[C@@H](O)COC[C@H]3O[C@H](CC(=O)NCc4ccc(Cl)c(Cl)c4)CC[C@@H]32)cc1`, inactive: 0.991. To `COc1ccc(S(=O)(=O)N(C)C[C@@H]2Oc3ccc(NC(=O)Cn4cnnn4)cc3C(=O)N([C@@H](C)CO)C[C@@H]2C)cc1` belongs inactive: 1.02; to `C[C@H]1CN([C@@H](C)CO)C(=O)Cc2cc(NC(=O)C3CC3)ccc2O[C@@H]1CN(C)S(=O)(=O)c1cn(C)cn1`, inactive: 0.975. With `C[C@@H]1CCCCO[C@H](CN(C)S(=O)(=O)c2cccs2)[C@H](C)CN([C@@H](C)CO)C(=O)c2cc(NC(=O)Nc3cccc4ccccc34)ccc2O1` the figure was inactive: 1.03; with `Cn1cnc(CCNC(=O)C[C@@H]2CC[C@@H]3[C@H](COC[C@@H](O)CN3C(=O)Nc3ccc(C(F)(F)F)cc3)O2)c1`, inactive: 0.976; with `COc1ccccc1C#Cc1ccc2c(c1)O[C@H](CN(C)Cc1ccncc1)[C@H](C)CN([C@H](C)CO)S2(=O)=O`, inactive: 0.999. For the compound `C[C@@H](NC(=O)C[C@@H]1C=C[C@H](NC(=O)CN2CCOCC2)[C@@H](CO)O1)c1ccccc1`, the relative growth is inactive: 0.976. With `C[C@H]1CN([C@@H](C)CO)C(=O)c2cccc(NS(=O)(=O)c3cccs3)c2O[C@H]1CN(C)Cc1ccc(Oc2ccccc2)cc1` the figure was inactive: 1.02; with `COc1ccc(S(=O)(=O)Nc2ccc3c(c2)C(=O)N([C@H](C)CO)C[C@H](C)[C@@H](CN(C)C(=O)Nc2c(C)noc2C)OCCCC[C@H](C)O3)cc1`, inactive: 1.

Turning to `CC(C)Oc1ccc(Cl)cc1CN`, the relative growth is inactive: 0.968.

`O=C(O)C1(c2cccs2)CCCC1`: the relative growth is inactive: 1.01. As to `C[C@@H]1CN([C@@H](C)CO)C(=O)CCCn2nncc2CO[C@H]1CN(C)C(=O)Nc1cccc2ccccc12`, the relative growth was inactive: 0.994. To `C[C@H]1CN([C@@H](C)CO)S(=O)(=O)c2ccc(C#Cc3ccc(F)cc3)cc2O[C@H]1CN(C)S(C)(=O)=O` belongs inactive: 1.02; to `Cl.NCCCCCC(=O)O`, inactive: 1.13.

In the case of `COc1ccc(S(=O)(=O)Nc2ccc3c(c2)C(=O)N([C@H](C)CO)C[C@H](C)[C@H](CN(C)S(=O)(=O)c2ccc(C)cc2)O3)cc1`, the relative growth was inactive: 0.998.

Take `C[C@H](CO)N1C[C@H](C)[C@H](CN(C)C(=O)Nc2ccc(F)cc2)Oc2ncc(C#Cc3ccc(C(F)(F)F)cc3)cc2C1=O`: the relative growth is inactive: 0.995. Consider `C[C@H]1CN([C@@H](C)CO)S(=O)(=O)c2ccc(-c3cccnc3)cc2O[C@@H]1CN(C)C(=O)NC1CCCCC1`, for which the relative growth was inactive: 0.971. For `CCCCS(=O)(=O)NC1=NCN(CCO)CN1`, the relative growth is inactive: 1.01. On to `Cc1noc(C)c1NC(=O)N(C)C[C@@H]1OCCCC[C@@H](C)Oc2ccc(NC(=O)Nc3ccc(C(F)(F)F)cc3)cc2C(=O)N([C@H](C)CO)C[C@H]1C`, for which the relative growth was inactive: 0.997. To `Cc1ccc(S(=O)(=O)Nc2ccc3c(c2)C(=O)N([C@@H](C)CO)C[C@H](C)[C@H](CN(C)C(=O)Nc2ccc(C(F)(F)F)cc2)O3)cc1` belongs inactive: 1.01.
